# Assay results published in the supplement of paper PMC9174493.
# The list shows a part of the results. Single values of this set are uncertain. Values with irradiation are relative to irradiated vehicle.
# Key:
# A549-Dual [1] = test: NF-kB reporter (SEAP) activity, viability-corrected, relative to vehicle (fold change vs vehicle); higher = more activation of STING-IRF / NF-kB immune response reporter; details: 10 µM
# A549-Dual [2] = test: ISRE reporter (Lucia luciferase) activity, viability-corrected, relative to vehicle (fold change vs vehicle); higher = more activation of STING-IRF / NF-kB immune response reporter; details: 10 µM
# 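For NF-kB reporter (SEAP) activity, viability-corrected, relative to vehicle in this document: viability correction based on the alamar blue assay, with concentrations leaving 10% survival or less dropped.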
Structure (SMILES),NF-kB reporter (A549-Dual [1]; irradiation: 8 Gy/4 fr),NF-kB reporter (A549-Dual [1]; irradiation: none),ISRE reporter (A549-Dual [2]; irradiation: 8 Gy/4 fr),ISRE reporter (A549-Dual [2]; irradiation: none)
CS(=O)(=O)O.Cc1ccc(N(CC2=NCCN2)c2cccc(O)c2)cc1 [Phentolamine Mesylate],0.838,0.965,0.805,0.93
CC(=O)NC(CC(C)C)C(=O)O (stereo not drawn) [Acetylleucine],0.962,0.784,0.785,0.453
Cc1nccn1CCC(C(N)=O)(c1ccccc1)c1ccccc1 [Imidafenacin],0.473,0.743,0.482,0.594
CC(=O)N(O)CCCCCNC(=O)CCC(=O)N(O)CCCCCNC(=O)CCC(=O)N(O)CCCCCN.CS(=O)(=O)O [Deferoxamine mesylate],0.814,0.946,0.194,0.34
O=C1CCc2ccccc21 [1-Indanone],0.733,0.839,0.717,0.704
CC(O)C1C(=O)N2C(C(=O)[O-])=C(SC3CNC(C(=O)Nc4cccc(C(=O)O)c4)C3)C(C)C12.[Na+] (stereo not drawn) [Ertapenem sodium],0.777,0.888,0.769,0.694
CCCC(=O)Nc1ncnc2c1ncn2C1OC2COP(=O)([O][Na])OC2C1OC(=O)CCC (stereo not drawn) [Dibutyryl-cAMP (Bucladesine)],1.35,0.638,1.54,0.598
COc1cc(CNC(=O)CCCC/C=C/C(C)C)ccc1O [Capsaicin(Vanilloid)],0.625,0.497,0.546,0.461
CN1C(=O)OC(C)(C)C1=O [Trimethadione],1.19,1.08,1.12,0.711
Nc1nc(/C(=C/CC(=O)O)C(=O)NC2C(=O)N3C(C(=O)O)=CCSC23)cs1.O.O (stereo not drawn) [Ceftibuten dihydrate],1.26,1.04,1.05,0.908
O=c1[nH]cnc2c1ncn2C1OC(CO)C(O)C1O (stereo not drawn) [Inosine],0.773,1.06,0.959,0.89
CC(=O)OCC1=C(C(=O)O)N2C(=O)C(NC(=O)CSC(=NC(C)C)NC(C)C)C2SC1 (stereo not drawn) [Cefathiamidine],0.734,0.805,0.863,0.732
